Assay results from paper PMC4624786.
Positions count from the first letter of the chain named. No constants are given. Whether binding was seen depends on the method and setting. Binding seen in cells or lysates may run through a third protein. Some results given as binding are weak or reduced against the parent protein; the word gives no strength. For part of these data: Where a sequence is shown, tags or fusion partners need not be part of it.

Protein sequences, listed by entry. Tags and fused reporters are not part of them.
UniProt O70161: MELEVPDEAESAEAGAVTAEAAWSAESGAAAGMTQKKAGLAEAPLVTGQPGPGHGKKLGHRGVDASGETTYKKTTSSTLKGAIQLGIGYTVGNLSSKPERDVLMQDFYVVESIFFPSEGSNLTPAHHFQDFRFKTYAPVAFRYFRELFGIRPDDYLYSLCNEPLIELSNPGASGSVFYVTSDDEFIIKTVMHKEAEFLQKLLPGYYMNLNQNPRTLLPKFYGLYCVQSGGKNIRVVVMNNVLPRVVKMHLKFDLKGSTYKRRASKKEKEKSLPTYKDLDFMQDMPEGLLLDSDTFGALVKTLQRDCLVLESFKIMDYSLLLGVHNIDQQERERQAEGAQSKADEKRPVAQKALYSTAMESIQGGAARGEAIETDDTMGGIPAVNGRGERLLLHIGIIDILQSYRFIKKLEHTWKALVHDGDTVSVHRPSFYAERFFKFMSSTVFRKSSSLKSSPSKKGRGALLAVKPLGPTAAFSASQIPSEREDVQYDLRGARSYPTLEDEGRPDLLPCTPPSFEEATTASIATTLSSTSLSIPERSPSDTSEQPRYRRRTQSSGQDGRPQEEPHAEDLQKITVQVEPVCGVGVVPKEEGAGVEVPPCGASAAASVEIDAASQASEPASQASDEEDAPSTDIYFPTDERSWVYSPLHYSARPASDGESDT
UniProt P70182: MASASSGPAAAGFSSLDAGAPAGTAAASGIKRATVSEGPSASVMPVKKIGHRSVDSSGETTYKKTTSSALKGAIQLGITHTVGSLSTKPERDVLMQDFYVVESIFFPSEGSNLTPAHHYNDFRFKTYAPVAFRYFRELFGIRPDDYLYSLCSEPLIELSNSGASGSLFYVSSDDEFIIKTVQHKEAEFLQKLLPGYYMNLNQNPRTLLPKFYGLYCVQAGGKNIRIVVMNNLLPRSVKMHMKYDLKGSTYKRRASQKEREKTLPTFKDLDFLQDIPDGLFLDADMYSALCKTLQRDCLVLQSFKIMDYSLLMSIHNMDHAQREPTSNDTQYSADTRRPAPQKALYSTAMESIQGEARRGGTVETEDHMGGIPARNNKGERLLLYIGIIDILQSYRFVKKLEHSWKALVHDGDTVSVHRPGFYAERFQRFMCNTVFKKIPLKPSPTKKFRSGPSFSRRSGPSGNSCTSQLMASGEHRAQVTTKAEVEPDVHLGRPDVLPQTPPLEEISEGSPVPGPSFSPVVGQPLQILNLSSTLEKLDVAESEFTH
UniProt Q80SW1: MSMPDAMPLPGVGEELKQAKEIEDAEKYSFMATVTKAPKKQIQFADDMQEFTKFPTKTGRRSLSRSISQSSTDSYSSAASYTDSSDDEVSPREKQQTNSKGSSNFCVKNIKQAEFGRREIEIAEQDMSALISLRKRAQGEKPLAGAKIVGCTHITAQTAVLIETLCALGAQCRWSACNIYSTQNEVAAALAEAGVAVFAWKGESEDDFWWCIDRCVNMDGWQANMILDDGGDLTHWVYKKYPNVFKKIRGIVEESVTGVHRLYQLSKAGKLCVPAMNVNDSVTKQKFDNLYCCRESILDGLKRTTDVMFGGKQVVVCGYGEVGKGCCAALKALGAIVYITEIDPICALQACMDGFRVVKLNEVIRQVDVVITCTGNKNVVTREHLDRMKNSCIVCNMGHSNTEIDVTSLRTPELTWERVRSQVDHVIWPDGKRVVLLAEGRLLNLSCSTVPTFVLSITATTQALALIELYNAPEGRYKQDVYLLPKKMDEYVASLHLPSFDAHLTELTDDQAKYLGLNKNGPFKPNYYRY

Key:
Test in all cases: co-IP; COS-7 cells co-transfected with HA-IRBIT and myc-PIPK constructs; lysis buffer 10 mM Hepes pH 7.4, 100 mM NaCl, 2 mM EDTA, 1% Nonidet P-40; precipitated with anti-HA or anti-myc antibody and protein G-Sepharose at 4°C; Western blot
myc-PIPKIIα D273A (rat) = target: T1, myc-PIPKIIα D273A (rat) (UniProt Q9R0I8)
T1 sequence: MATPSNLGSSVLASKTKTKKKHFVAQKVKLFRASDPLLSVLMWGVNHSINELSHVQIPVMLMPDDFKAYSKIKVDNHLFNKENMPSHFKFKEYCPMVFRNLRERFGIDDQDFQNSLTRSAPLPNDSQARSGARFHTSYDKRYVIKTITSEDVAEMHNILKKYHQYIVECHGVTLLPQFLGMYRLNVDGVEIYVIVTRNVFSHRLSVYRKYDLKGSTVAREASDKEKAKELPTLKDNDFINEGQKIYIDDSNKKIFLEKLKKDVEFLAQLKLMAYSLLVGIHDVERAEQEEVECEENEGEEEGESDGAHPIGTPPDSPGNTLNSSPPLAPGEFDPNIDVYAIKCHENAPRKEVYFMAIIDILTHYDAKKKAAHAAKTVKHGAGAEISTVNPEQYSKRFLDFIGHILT

[1] = target: T2, myc-tagged phosphatidylinositol phosphate kinase type IIγ (rat) (UniProt O88370)
T2 sequence: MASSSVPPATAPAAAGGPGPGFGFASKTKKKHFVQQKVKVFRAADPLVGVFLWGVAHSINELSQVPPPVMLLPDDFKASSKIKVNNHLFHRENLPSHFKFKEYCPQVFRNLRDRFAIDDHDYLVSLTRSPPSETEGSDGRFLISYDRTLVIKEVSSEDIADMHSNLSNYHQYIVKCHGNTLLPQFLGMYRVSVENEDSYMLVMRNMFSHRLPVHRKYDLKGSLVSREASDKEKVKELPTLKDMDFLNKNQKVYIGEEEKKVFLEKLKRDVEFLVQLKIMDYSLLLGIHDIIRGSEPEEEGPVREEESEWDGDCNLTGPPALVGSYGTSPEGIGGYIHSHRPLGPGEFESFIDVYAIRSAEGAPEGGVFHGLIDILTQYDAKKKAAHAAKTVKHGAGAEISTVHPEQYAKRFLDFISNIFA

[2] = target: T3, myc-tagged phosphatidylinositol phosphate kinase type IIβ (rat) (UniProt O88377)
T3 sequence: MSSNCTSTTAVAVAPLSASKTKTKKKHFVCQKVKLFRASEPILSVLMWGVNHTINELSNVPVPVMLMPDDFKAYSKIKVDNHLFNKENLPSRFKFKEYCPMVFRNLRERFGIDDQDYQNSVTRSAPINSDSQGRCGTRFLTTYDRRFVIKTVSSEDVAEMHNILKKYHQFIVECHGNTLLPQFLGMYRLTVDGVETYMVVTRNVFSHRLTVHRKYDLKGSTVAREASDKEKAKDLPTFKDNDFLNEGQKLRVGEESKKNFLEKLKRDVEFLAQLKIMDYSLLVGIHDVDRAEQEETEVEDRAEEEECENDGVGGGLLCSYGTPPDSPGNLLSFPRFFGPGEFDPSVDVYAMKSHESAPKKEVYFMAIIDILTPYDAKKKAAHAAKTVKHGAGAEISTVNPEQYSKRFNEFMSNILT

[3] = target: myc-tagged phosphatidylinositol phosphate kinase type Iγ (mouse) (UniProt O70161)
myc-PIPKIIα D359A (rat) = target: T4, myc-PIPKIIα D359A (rat) (UniProt Q9R0I8)
T4 sequence: T1 sequence with A273D, D359A

[4] = target: myc-tagged phosphatidylinositol phosphate kinase type Iα (mouse) (UniProt P70182)

Measured: binding

Hemagglutinin (HA)-tagged IRBIT (IP3R-binding protein released with inositol 1,4,5-trisphosphate) (from UniProt Q80SW1 1-530)
binds: myc-PIPKIIα D273A (rat) | [1] | [2] | [3] | myc-PIPKIIα D359A (rat) | [4]
